# From PubChem BioAssay AID1468 (National Center for Advancing Translational Sciences (NCATS), 2008)
# Among all 280,000 compounds or so, about 1,100 (0.39%) were called active. Inconclusive means that the source gave no clear call. Such entries were picked first, then a sample of the others. The call rests on the fitted dose curve; in most records, active means well fitted inhibition curve with a large enough effect; inconclusive means small, poorly fitted or top-dose-only effect, or effect the other way; inactive means flat fitted curve, though single readings scatter. No potency is given beside an inconclusive call; the fits are too rough.
# Target: Microtubule-associated protein tau (Homo sapiens) (UniProt P10636)
# Experiment: qHTS for Inhibitors of Tau Fibril Formation, Fluorescence Polarization; further: nearly all actives have a fitted effect of over 55% in size
# Details: K18 P301L tau heparin fibrillization, Alexa594 FP, 6 h; series mostly up to 57.7 µM
# Summary of the method: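 K18 P301L tau (15 uM unlabeled/0.24 uM Alexa 594-labeled, final) + compound + heparin 20 uM final; 100 mM NaOAc pH 7; 6 hr 37 C; ThT 30 uM final added, 1 hr RT; FP ex 555/em 632 nm.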
# Potency means the concentration at half of the fitted maximal effect; tags describe the fitted curve by direction and shape.
# UniProt P10636, sequence (P10636 whole entry, looked up): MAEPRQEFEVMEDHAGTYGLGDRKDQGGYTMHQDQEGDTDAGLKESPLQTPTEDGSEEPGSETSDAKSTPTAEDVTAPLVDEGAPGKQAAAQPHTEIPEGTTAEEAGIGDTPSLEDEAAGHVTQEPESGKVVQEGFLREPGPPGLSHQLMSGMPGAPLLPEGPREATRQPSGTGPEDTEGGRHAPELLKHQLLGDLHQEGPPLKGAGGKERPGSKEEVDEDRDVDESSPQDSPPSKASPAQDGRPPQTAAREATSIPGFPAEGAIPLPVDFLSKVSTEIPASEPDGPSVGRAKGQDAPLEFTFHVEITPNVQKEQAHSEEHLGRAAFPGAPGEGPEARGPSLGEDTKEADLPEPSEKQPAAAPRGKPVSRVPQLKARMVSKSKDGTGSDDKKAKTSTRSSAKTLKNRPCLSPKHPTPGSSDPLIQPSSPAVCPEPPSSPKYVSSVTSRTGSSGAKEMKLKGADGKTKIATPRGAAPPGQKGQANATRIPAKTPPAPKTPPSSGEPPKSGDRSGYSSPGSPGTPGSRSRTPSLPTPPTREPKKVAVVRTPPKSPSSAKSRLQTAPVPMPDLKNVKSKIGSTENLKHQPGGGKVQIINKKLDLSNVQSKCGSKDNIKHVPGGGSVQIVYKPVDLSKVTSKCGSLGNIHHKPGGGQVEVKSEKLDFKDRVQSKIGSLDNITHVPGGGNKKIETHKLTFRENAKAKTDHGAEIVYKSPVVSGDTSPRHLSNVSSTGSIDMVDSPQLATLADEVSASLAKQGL
row,Structure (SMILES),Potency
1,O=C(NCCN1C(=O)CCC1=O)c1ccncc1,inactive
2,O=C1c2[nH]nc(-c3ccccc3O)c2C(c2cccc(Cl)c2)N1Cc1cccnc1 (stereo not given),"inconclusive [inhibitor, single point]"
3,CCOc1ccc(-n2c(N)c(-c3nc4ccccc4n3C)c3nc4ccccc4nc32)cc1,"inconclusive [activator, full curve]"
4,O=c1[nH][nH]c(-c2ccccc2O)c1C(C[N+](=O)[O-])c1ccc(Br)cc1 (stereo not given),inactive
5,CC1=C(c2ccc(C(C)C)cc2)S(=O)(=O)NC1=NCc1ccccc1Br,"inconclusive [inhibitor, single point]"
6,CCOc1ccc(CCNC(=O)Cn2ncc3c(=O)oc4ccc(C)cc4c32)cc1,"inconclusive [inhibitor, single point]"
7,Cc1ccc2oc(=O)c(/C=C(\O)c3ccco3)nc2c1,inactive
8,Cc1onc(-c2c(F)cccc2Cl)c1C(=O)Nc1nccs1,inactive
9,Nc1ccccc1Nc1ccncc1[N+](=O)[O-],"inconclusive [inhibitor, single point]"
10,O=C(NCc1ccccc1Cl)c1cccc(NC(=O)c2ccccc2)c1,"inconclusive [inhibitor, single point]"
11,O=C(Nc1ccc(S(=O)(=O)N2CCc3ccccc3C2)cc1)c1ccccc1,"inconclusive [inhibitor, partial curve]"
12,CSc1cccc(NC(=O)/C=C/c2ccc(Cl)cc2)c1,"inconclusive [inhibitor, single point]"
13,Fc1ccc(NC(=S)Nc2ccc(F)c(Cl)c2)cc1Cl,"inconclusive [inhibitor, partial curve]"
14,O=C(NCc1ccc(F)cc1)c1ccc(N2CCc3ccccc32)c([N+](=O)[O-])c1,"inconclusive [activator, full curve, poor fit]"
15,CC(C)CNS(=O)(=O)c1ccc(CCC(=O)NCc2ccco2)cc1,"inconclusive [inhibitor, partial curve]"
16,CCOc1ccc(-c2nnn(CC(=O)Nc3cccc(OC)c3)n2)cc1OCC,"inconclusive [inhibitor, single point]"
17,COc1ccc(NC(=O)c2[nH]c(C)c(C(C)=O)c2C)cc1S(=O)(=O)Nc1ccc(Br)cc1,"inconclusive [inhibitor, single point]"
18,CC1=C(C(=O)Nc2ccccn2)C(c2ccc(F)cc2)n2ncnc2N1 (stereo not given),"inconclusive [inhibitor, single point]"
19,CCOC(=O)c1ccc(NC(=O)CN(c2ccc(C)cc2)S(=O)(=O)c2c(C)nn(C)c2C)cc1,"inconclusive [inhibitor, single point]"
20,Cn1ncc2c(Nc3ccccc3Cl)nc(Nc3ccccc3Cl)nc21,"inconclusive [inhibitor, partial curve]"
21,N#Cc1nc(-c2ccco2)oc1NCCCN1CCOCC1,inactive
22,Cc1ccc(S(=O)(=O)N(CC(=O)Nc2c(C)cccc2C)c2cccc(Cl)c2)cc1,inactive

row,Structure (SMILES),Potency
1,O=C(Cn1cc(S(=O)(=O)Cc2ccccc2Cl)c2ccccc21)Nc1cccc(C(F)(F)F)c1,"inconclusive [inhibitor, partial curve]"
2,Cc1ccc2nc(CN3CCN(S(=O)(=O)c4ccccc4)CC3)oc2c1,inactive
3,CC(C)Oc1cccc(C(=O)Nc2ccc3oc(-c4ccccc4)nc3c2)c1,"inconclusive [inhibitor, partial curve, poor fit]"
4,Cc1ccc(S(=O)(=O)N2CCCCC2C(=O)N2CCN(C)CC2)cc1 (stereo not given),"inconclusive [inhibitor, partial curve]"
5,Cn1c(=O)n(C)c2cc(S(=O)(=O)NCCO)ccc21,inactive
6,CC(=O)C1=C(C)NC(SCc2cccc3ccccc23)=C(C#N)C1c1ccco1 (stereo not given),"inconclusive [inhibitor, full curve, poor fit]"
7,CCOC(=O)c1ccc(NC(=O)c2ccc(-c3cccc(Cl)c3C)o2)cc1,"inconclusive [inhibitor, partial curve]"
8,COc1cc2[nH]c(=S)n(Cc3cccs3)c(=O)c2cc1OC,"inconclusive [inhibitor, full curve]"
9,Cn1c(C(=O)N2CCN(c3cccc(C(F)(F)F)c3)CC2)cc2sccc21,"inconclusive [inhibitor, single point]"
10,c1ccc(-n2nnnc2SCc2cccc(CSc3nnnn3-c3ccccc3)n2)cc1,"inconclusive [inhibitor, partial curve, poor fit]"
11,COc1ccc(Cn2c(C)c(C)c(C#N)c2NC(=O)Nc2cccc(Cl)c2)cc1,"inconclusive [inhibitor, single point]"
12,O=[N+]([O-])/C(C(Cl)=C(Cl)Cl)=C(/Sc1ccccc1)N1CCCCC1,"inconclusive [inhibitor, single point]"
13,CN=c1scc(-c2cccs2)n1/N=C/c1ccc(O)c(O)c1O,"inconclusive [inhibitor, single point]"
14,CCCCOC(=O)c1ccc(NC(=O)c2ccccc2OC)cc1,"inconclusive [inhibitor, single point]"
15,Fc1ccc2[nH]c3c(c2c1)CN(C(=S)NCc1ccccc1)CC3,"inconclusive [inhibitor, single point]"
16,CCc1ccc(C2CC(=O)N(c3ccc(F)cc3)C3=C2C(=O)OC3)cc1 (stereo not given),inactive
17,CC1(Br)C2CCCC1C2S(=O)(=O)c1ccccc1 (stereo not given),"inconclusive [inhibitor, full curve, poor fit]"
18,O=C(N/N=C\c1ccc(O)c([N+](=O)[O-])c1)C1COc2ccccc2O1 (stereo not given),"inconclusive [activator, full curve, poor fit]"
19,c1ccc(-n2cccc2CNC2CCCCC2)cc1,inactive
20,CC(=O)OC(C)C[N+](C)(C)C (stereo not given),"inconclusive [inhibitor, full curve, poor fit]"
21,NNC(=O)c1ccc(COc2ccccc2)cc1,"inconclusive [inhibitor, single point]"
22,COc1ccc(-c2csc(-c3c(N)c(C(=O)c4ccccc4)n4ccccc34)n2)cc1,"inconclusive [activator, full curve]"

row,Structure (SMILES),Potency
1,CCOC(=O)C1(CCCc2ccccc2)CCN(CC(O)CO)CC1 (stereo not given),inactive
2,Cc1cccc(NC2=C(NC(=O)c3ccccc3)C(=O)c3ccccc3C2=O)c1,inactive
3,CN(C)S(=O)(=O)c1cccc(C(=O)Nc2cc(Cl)cc(Cl)c2)c1,"inconclusive [inhibitor, partial curve]"
4,CCN(CCCNC(=O)c1[nH]c(C)c(C(C)=O)c1C)c1cccc(C)c1,"inconclusive [activator, single point]"
5,CCOc1ccccc1NC(=O)c1nnn(CC(=O)Nc2ccccc2CC)c1N,"inconclusive [inhibitor, partial curve, poor fit]"
6,CC(C)c1ccc(S(=O)(=O)c2cnc(SCC(=O)Nc3ccc(F)cc3F)nc2N)cc1,"inconclusive [inhibitor, partial curve]"
7,Cc1ccc(C)c(C(=O)CSc2nc3cc(C(=O)NC4CCCC4)ccc3c(=O)n2CC2CCCO2)c1 (stereo not given),inactive
8,Cc1ccc(-c2n[nH]c3c2C(c2cccs2)N(c2ccc(Cl)cc2)C3=O)cc1 (stereo not given),"inconclusive [inhibitor, partial curve]"
9,CCC(CC)C1C(C#N)=C(N)Oc2n[nH]c(-c3ccccc3)c21 (stereo not given),"inconclusive [inhibitor, single point]"
10,CC1CCCC(C)N1C(=O)Cn1cc(C#N)c2ccccc21 (stereo not given),"inconclusive [inhibitor, partial curve, poor fit]"
11,CCOC(=O)c1oc2ccc(S(=O)(=O)n3nc(-c4ccccc4)cc3N)cc2c1C,"inconclusive [inhibitor, partial curve]"
12,O=C(CN1CCN(c2ccccc2)CC1)Nc1ccc(OCc2ccccc2)cc1,"inconclusive [activator, single point]"
13,Cc1ccc(C(=O)Nc2cccc(C(F)(F)F)c2)cc1NC(=O)c1cnnc2ccccc12,"inconclusive [inhibitor, single point]"
14,CCOC(=O)CSc1nc2cc(OCC)ccc2cc1C#N,inactive
15,Cc1ccc2[nH]c(=O)c(C(c3nnnn3Cc3ccccc3)N3CCc4ccccc43)cc2c1 (stereo not given),"inconclusive [inhibitor, partial curve]"
16,CC1CCN(S(=O)(=O)c2cn(CC(=O)Nc3ccc(F)cc3)c(=O)c3ccccc23)CC1,"inconclusive [inhibitor, partial curve]"
17,COc1ccc(-c2cc(C(=O)N/N=C/c3ccc4c(c3)OCO4)c3ccccc3n2)c(OC)c1,"inconclusive [inhibitor, partial curve]"
18,OCCN1CCN(CC(O)COc2ccc(Cl)cc2)CC1 (stereo not given),inactive
19,CSc1nn(Cc2ccc(F)cc2)c(N)c1S(=O)(=O)c1ccc(Cl)cc1,"inconclusive [inhibitor, partial curve]"
20,O=C(NC1CCS(=O)(=O)C1)C1CCCCN1S(=O)(=O)c1ccc(Cl)cc1 (stereo not given),"inconclusive [inhibitor, single point]"
21,O=C1Nc2ccc([N+](=O)[O-])cc2C1=Nc1cccc(CO)c1,"inconclusive [inhibitor, single point]"
